Measurements from publication PMC12796746.
These are yes or no findings as the source states them, for the method shown. Some binding calls cover weakened binding; strength is not graded here.

By UniProt entry, the sequences of proteins in these tests, tags left out.
UniProt Q9Y243: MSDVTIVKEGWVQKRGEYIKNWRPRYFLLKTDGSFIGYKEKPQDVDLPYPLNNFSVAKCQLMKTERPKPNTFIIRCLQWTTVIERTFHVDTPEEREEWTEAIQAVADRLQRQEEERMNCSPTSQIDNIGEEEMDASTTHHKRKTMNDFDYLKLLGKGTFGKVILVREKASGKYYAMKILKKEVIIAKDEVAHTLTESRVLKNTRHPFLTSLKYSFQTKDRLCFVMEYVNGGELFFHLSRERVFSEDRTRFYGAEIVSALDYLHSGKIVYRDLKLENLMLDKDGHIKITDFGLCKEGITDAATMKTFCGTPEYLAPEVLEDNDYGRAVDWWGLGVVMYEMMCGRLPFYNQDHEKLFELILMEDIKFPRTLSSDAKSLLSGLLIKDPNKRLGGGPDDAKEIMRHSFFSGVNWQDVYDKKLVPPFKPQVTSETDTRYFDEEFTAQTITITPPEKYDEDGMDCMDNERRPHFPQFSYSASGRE

Columns and labels:
Assay in all cases: peptide or protein array; HuProt Human Proteome Microarray v2.0, full-length human proteins spotted in duplicate; V5-tagged TRPV4 protein in solution at 1 μM, 1 h at 4 °C, 150 mM NaCl, 2.7 mM KCl, 25 mM Trizma base, 0.05% Tween-20, pH 7.4; detected with Alexa Fluor 647 anti-V5; hit: z-score >= 2 (N terminus: both of 2 slides; ARD constructs: at least 2 of 3 slides); both purified
AGO3 (human) = AGO3 (human) (UniProt Q9H9G7)
AKT3 (human) = AKT3 (human) (UniProt Q9Y243)
[1] = molecular target: T1, Dystrobrevin alpha (human) (UniProt Q9Y4J8)
T1 sequence: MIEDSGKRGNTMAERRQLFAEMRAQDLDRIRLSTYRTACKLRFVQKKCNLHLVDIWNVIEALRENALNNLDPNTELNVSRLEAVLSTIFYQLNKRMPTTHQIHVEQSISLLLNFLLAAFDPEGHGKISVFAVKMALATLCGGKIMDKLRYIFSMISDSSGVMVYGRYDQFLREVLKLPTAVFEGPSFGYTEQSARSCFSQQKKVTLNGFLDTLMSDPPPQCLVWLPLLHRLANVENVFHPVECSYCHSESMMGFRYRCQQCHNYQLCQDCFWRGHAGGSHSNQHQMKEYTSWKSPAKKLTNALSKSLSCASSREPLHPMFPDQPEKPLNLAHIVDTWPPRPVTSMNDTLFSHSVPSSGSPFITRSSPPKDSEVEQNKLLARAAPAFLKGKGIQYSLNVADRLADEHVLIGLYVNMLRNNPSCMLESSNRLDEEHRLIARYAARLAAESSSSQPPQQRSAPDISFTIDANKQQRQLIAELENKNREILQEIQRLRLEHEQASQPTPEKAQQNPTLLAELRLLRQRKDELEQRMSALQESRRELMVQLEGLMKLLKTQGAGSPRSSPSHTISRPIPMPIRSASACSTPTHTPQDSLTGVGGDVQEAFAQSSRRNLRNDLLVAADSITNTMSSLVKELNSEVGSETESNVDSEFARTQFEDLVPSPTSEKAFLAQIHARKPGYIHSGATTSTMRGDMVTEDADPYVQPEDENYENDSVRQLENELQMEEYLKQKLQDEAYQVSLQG

[2] = molecular target: T2, OTUB2 (on the HuProt array) (human) (UniProt Q96DC9)
T2 sequence: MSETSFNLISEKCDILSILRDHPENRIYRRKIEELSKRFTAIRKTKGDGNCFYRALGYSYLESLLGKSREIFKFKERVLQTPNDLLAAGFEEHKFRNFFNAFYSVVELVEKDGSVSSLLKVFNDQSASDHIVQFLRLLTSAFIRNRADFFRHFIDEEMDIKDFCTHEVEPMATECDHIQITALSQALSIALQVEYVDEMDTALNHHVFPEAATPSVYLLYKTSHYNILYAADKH

binding (AGO3 (human)): no binding (tested: 1 μM) | binding (AKT3 (human)): no binding (tested: 1 μM) | binding [1]: binds | binding [2]: no binding (tested: 1 μM)
Substance: TRPV4^WT-ARD (amino acids 149-397) (from UniProt Q9HBA0 149-397) (domain or fragment)
